# PubChem BioAssay AID463173 (ICCB-Longwood Screening Facility, Harvard Medical School, 2010)
# Among all 52,000 compounds or so, about 1,700 (3.3%) were called active. No stated cut-off is given here; in the data, active means survival mostly below about 52% (no sharp cut-off); inactive means mostly above about 56%. Some of the results follow.
# System: Wild type
# Experiment: S. aureus survival, RN4220 and DeltatarO strains – OD600, teichoic acid synthesis inhibitors, primary screen (AID 463173)
# Conditions: S. aureus RN4220 wild type/DeltatarO growth, OD600, 18 h, hits give low values, screened at 18.75 µg/mL (by protocol)
row,SMILES,survival
1,Cc1ccc(NC(=O)C(=O)NCC2(c3ccccc3)CCCC2)cc1C,inactive: 89%
2,CCc1cccc(NC(=O)c2c(C)oc3nc(C)nc(N4CCCC4)c23)c1,inactive: 101%
3,CC(=O)Nc1ccc(C(=O)N2CC(C)OC(C)C2)cc1 (configuration not stated),inactive: 133%
4,O=C(CN1C(=O)COc2ccc(S(=O)(=O)N3CCOCC3)cc21)N1CCN(c2ccccc2F)CC1,inactive: 100%
5,Cc1nn(-c2ccccc2)c2[nH]c(=O)c(CNCc3cccnc3)cc12,inactive: 102%
6,COC(=O)C1CCN(c2csc3ccc(Cl)cc3c2=O)CC1,inactive: 80%
7,O=C(NCCCO)c1nn(-c2ccc(Cl)cc2)nc1CO,inactive: 85%
8,CSc1nc(C)cc(C)c1C(N)=O,inactive: 102%
9,CCCOc1ccc(CNC(=O)CN2C(=O)c3cccnc3Oc3ccc(C)cc32)cc1,inactive: 58%
10,COc1ccc(S(=O)(=O)N/N=C(/C2CCCCC2)C(F)(F)F)cc1,inactive: 111%
11,COc1cccc(NC(=O)Cn2c(=O)n(CCc3ccc(OC)c(OC)c3)c(=O)c3ccccc32)c1,inactive: 72%
12,CCc1ccc(OCc2cc(=O)n3cc(C)sc3n2)cc1,inactive: 75%
13,CCOc1ccc2oc(=O)cc(CN3CCN(c4ccccc4OC)CC3)c2c1,inactive: 80%
14,COc1cc(OC)c(OC)cc1CNCCCSc1nnnn1C,inactive: 86%
15,Cc1cc(C)cc(N(CC(=O)NCc2ccco2)S(C)(=O)=O)c1,inactive: 108%
16,CCc1ccc(NCc2cc3ccc(OC)cc3n(CC(=O)Nc3ccc(C)c(Cl)c3)c2=O)cc1,inactive: 75%
17,COc1ccc(C(=O)N(Cc2cc(OC)c(OC)c(OC)c2)C2CCS(=O)(=O)C2)cc1Cl (configuration not stated),inactive: 86%
18,Cc1ccc(CSc2nc(-c3ccccc3C)nc3c2Cc2c(CO)cnc(C)c2O3)cc1,inactive: 84%
19,CC(=O)OC1OCCOC1NC(=S)Nc1ccc(C)cc1 (configuration not stated),inactive: 109%

row,SMILES,survival
1,Cn1cc(S(=O)(=O)N2CCOCC2)cc1C(=O)Nc1cccc(C#N)c1,inactive: 72%
2,CC(C)Oc1ccc(CNC(=O)Cn2nc(N3CCN(c4ccccc4)CC3)ccc2=O)cc1,inactive: 82%
3,CCC(=O)N1CCc2cc(OC)c(OC)cc2C1COc1ccc2c(C)cc(=O)oc2c1 (configuration not stated),inactive: 120%
4,COc1ccc(C2c3c(n(C)c4ccccc34)C(=O)N2CC(=O)Nc2ccc(F)cc2)cc1 (configuration not stated),inactive: 81%
5,CC(C)c1ccc(CNc2n[nH]c(-c3ccco3)n2)cc1,inactive: 90%
6,COCCNC(=O)C1=CC(c2ccc3c(c2)OCO3)=NS(=O)(=O)N1C,inactive: 103%
7,CCCCn1c(=N)n(CCOc2ccccc2OC)c2ccccc21,inactive: 81%
8,Cc1ccc(C(=O)c2oc3ccccc3c2NC(=O)Cc2ccccc2)cc1,inactive: 53%
9,CCOc1ccc(-c2nc(SCC(=O)Nc3cc(F)ccc3F)n3[nH]c(=O)cc3n2)cc1,inactive: 77%
10,NCCCSC1=NCCCN1,inactive: 111%
11,CCn1nnc2cc(C(=O)Nc3ccc(Br)cc3F)ccc21,inactive: 67%
12,CCOC(=O)c1c(S(=O)(=O)N2CCC(C(=O)N3CCN(c4ccc(F)cc4)CC3)CC2)c(C)n(C)c1C,inactive: 73%
13,Cc1ccc(NC(=O)C2CCCN2S(=O)(=O)c2ccc3c(c2)n(C)c(=O)c(=O)n3C)cc1C (configuration not stated),inactive: 118%
14,O=C1N(Cc2ccccc2)c2ccccc2C1(O)c1c[nH]c2ccccc12 (configuration not stated),inactive: 67%
15,Cn1c(=O)c2c(SCC(=O)N3CCc4ccccc43)nc(-c3ccc(Cl)cc3)nc2n(C)c1=O,inactive: 132%
16,O=C(NCCCN1CCN(c2ccccc2F)CC1)c1ccc2nc(N3CCCCC3)sc2c1,inactive: 79%
17,O=C(Nc1ccc(C(F)(F)F)cc1)C(Cc1ccccc1)n1cccc1 (configuration not stated),active: -2%
18,CC(=O)Nc1cccc(C(=O)NCc2ccc3c(c2)CCN3C(=O)c2ccc(F)cc2)c1,inactive: 92%
19,Cc1c(CCNC(=O)C(C)(C)C)sc2nc(-c3ccc(F)cc3)nn12,inactive: 82%

row,SMILES,survival
1,COc1cccc(NS(=O)(=O)c2ccc3[nH]cc(C(=O)N4CCCC4)c(=O)c3c2)c1,inactive: 92%
2,Cc1cc2c(cc3c(SCc4ccccc4Cl)nnc(C)n32)o1,inactive: 53%
3,Cc1cc(NC(=O)c2ccc(NC(=O)CCS(=O)(=O)c3cccs3)cc2)ccc1Br,inactive: 70%
4,CCN(C(=O)C1CCCN(c2ncnc3c2nc2n3CCCCC2)C1)c1cccc(Cl)c1 (configuration not stated),inactive: 105%
5,CCn1c(COc2cccc(C)c2)nnc1SCC(=O)N1C(C)CCCC1C (configuration not stated),inactive: 116%
6,COc1ccccc1NC(=O)C1=C(C)Nc2nc(SCc3ccccc3)nn2C1c1ccncc1 (configuration not stated),inactive: 83%
7,CC(=O)c1ccc(NC(=O)COCc2cc(-c3ccc(F)cc3)on2)cc1,inactive: 75%
8,COc1cc(OC)c(N(C)C(=O)c2sc3nc4n(c(=O)c3c2C)CCCCC4)cc1Cl,inactive: 82%
9,COc1cc(NC(=O)Cn2nc3c(cc2=O)CC(C)CC3)cc(OC)c1OC (configuration not stated),inactive: 75%
10,Cc1cc(Nc2cc(F)ccc2C)nc(-n2nc(C)cc2C)n1,inactive: 67%
11,CCn1cc(C(=O)N2CCN(c3ccc(OC)cc3)CC2)c(=O)c2cc(S(=O)(=O)N3CCOCC3)ccc21,inactive: 141%
12,CN(C)S(=O)(=O)N(CC(=O)NCCSc1ccccc1)c1ccccc1,inactive: 71%
13,Cc1ccc(N(C(=O)Cn2nnc(-c3ccc(C)o3)n2)C(C(=O)NCC2CCCO2)c2ccc(F)cc2)cc1 (configuration not stated),inactive: 103%
14,Cc1c(C(=O)N2CCC(C)CC2)c(S(=O)(=O)Nc2ccc(OC(F)(F)F)cc2)c(C)n1C,inactive: 63%
15,CC(C)N(Cc1ccccc1)C(=O)CN1C(=O)CSc2ccc(S(=O)(=O)N3CCCC3)cc21,inactive: 100%
16,COc1ccc2[nH]cc(CCN=C(NC(=O)c3ccccc3C)Nc3nc(C)cc(C)n3)c2c1,inactive: 41%
17,COc1ccc(OCC(=O)Nc2ccc(-c3nc4cc(C)c(C)cc4o3)cc2)cc1,inactive: 77%
18,O=C(Cn1ncc2c3ccccc3n(Cc3ccc(F)cc3)c2c1=O)NCCCN1CCCCC1,inactive: 85%
19,COc1ccc(N2CCN(Cc3nnnn3C3CCCCC3)CC2)cc1,inactive: 109%
